From the supplement of paper PMC8728848
The list shows a part of the results.

Columns and labels:
Test in all cases: glycan array binding signal (z-score within array); higher = stronger binding
Conditions in all cases: glycan notation: IUPAC condensed, linker removed
GalNAc(b1-4)GlcNAc = target: GalNAc(b1-4)GlcNAc
In short: (§1)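 Negative Z-scores can be read as non-binding. The Z-score is calculated within each array and then averaged across arrays of one protein sequence at different concentrations or buffers and across linkers. Arrays, 3228 in all, were curated from the Consortium for Functional Glycomics database and kept only where the protein sequence was available.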

Glc(a1-4)Glc = target: Glc(a1-4)Glc
In short: as §1

Glc(a1-6)Glc(a1-6)Glc = target: Glc(a1-6)Glc(a1-6)Glc
In short: as §1

Glc(b1-4)Glc = target: Glc(b1-4)Glc
In short: as §1

Glc(b1-6)Glc = target: Glc(b1-6)Glc
In short: as §1

GlcA(b1-3)Gal = target: GlcA(b1-3)Gal
In short: as §1

GlcA(b1-3)GlcNAc = target: GlcA(b1-3)GlcNAc
In short: as §1

GlcA(b1-6)Gal = target: GlcA(b1-6)Gal
In short: as §1

[1] = target: GlcNAc(a1-3)Gal(b1-4)GlcNAc
In short: as §1

[2] = target: GlcNAc(a1-6)Gal(b1-4)GlcNAc
In short: as §1

[3] = target: GlcNAc(b1-2)Gal(b1-3)GalNAc
In short: as §1

[4] = target: GlcNAc(b1-2)Man(a1-3)[GlcNAc(b1-2)Man(a1-6)]Man(b1-4)GlcNAc(b1-4)GlcNAc
In short: as §1

GlcNAc(b1-3)Gal = target: GlcNAc(b1-3)Gal
In short: as §1

[5] = target: GlcNAc(b1-3)Gal(b1-3)GalNAc
In short: as §1

GlcNAc(b1-3)Gal(b1-4)Glc = target: GlcNAc(b1-3)Gal(b1-4)Glc
In short: as §1

[6] = target: GlcNAc(b1-3)Gal(b1-4)GlcNAc
In short: as §1

[7] = target: GlcNAc(b1-3)Gal(b1-4)GlcNAc(b1-3)Gal(b1-4)GlcNAc
In short: as §1

GlcNAc(b1-3)GalNAc = target: GlcNAc(b1-3)GalNAc
In short: as §1

GlcNAc(b1-3)Man = target: GlcNAc(b1-3)Man
In short: as §1

[8] = target: GlcNAc(b1-3)[GlcNAc(b1-4)][GlcNAc(b1-6)]GlcNAc
In short: as §1

[9] = target: GlcNAc(b1-3)[GlcNAc(b1-6)]Gal(b1-4)GlcNAc
In short: as §1

[10] = target: GlcNAc(b1-3)[GlcNAc(b1-6)]GalNAc
In short: as §1

[11] = target: GlcNAc(b1-4)Gal(b1-4)GlcNAc
In short: as §1

GlcNAc(b1-4)GlcNAc = target: GlcNAc(b1-4)GlcNAc
In short: as §1

[12] = target: GlcNAc(b1-4)GlcNAc(b1-4)GlcNAc
In short: as §1

[13] = target: GlcNAc(b1-4)GlcNAc(b1-4)GlcNAc(b1-4)GlcNAc(b1-4)GlcNAc
In short: as §1

[14] = target: GlcNAc(b1-4)GlcNAc(b1-4)GlcNAc(b1-4)GlcNAc(b1-4)GlcNAc(b1-4)GlcNAc
In short: as §1

[15] = target: GlcNAc(b1-4)[GlcNAc(b1-6)]GalNAc
In short: as §1

[16] = target: GlcNAc(b1-6)Gal(b1-4)GlcNAc
In short: as §1

GlcNAc(b1-6)GalNAc = target: GlcNAc(b1-6)GalNAc
In short: as §1

GlcNAc3Prop(b1-4)GlcNAc = target: GlcNAc3Prop(b1-4)GlcNAc
In short: as §1

Kdn(a2-3)Gal(b1-3)GlcNAc = target: Kdn(a2-3)Gal(b1-3)GlcNAc
In short: as §1

Kdn(a2-3)Gal(b1-4)GlcNAc = target: Kdn(a2-3)Gal(b1-4)GlcNAc
In short: as §1

[17] = target: Man(a1-2)Man(a1-2)Man(a1-3)Man
In short: as §1

[18] = target: Man(a1-2)Man(a1-2)Man(a1-6)[Man(a1-3)]Man
In short: as §1

Man(a1-2)Man(a1-3)Man = target: Man(a1-2)Man(a1-3)Man
In short: as §1

[19] = target: Man(a1-2)Man(a1-3)[Man(a1-2)Man(a1-6)]Man
In short: as §1

[20] = target: Man(a1-2)Man(a1-3)[Man(a1-2)Man(a1-6)]Man(a1-6)[Man(a1-2)Man(a1-2)Man(a1-3)]Man
In short: as §1

[21] = target: Man(a1-2)Man(a1-3)[Man(a1-2)Man(a1-6)]Man(a1-6)[Man(a1-2)Man(a1-2)Man(a1-3)]Man(b1-4)GlcNAc(b1-4)GlcNAc
In short: as §1

[22] = target: Man(a1-2)Man(a1-3)[Man(a1-6)]Man(a1-6)[Man(a1-2)Man(a1-3)]Man(b1-4)GlcNAc(b1-4)GlcNAc
In short: as §1

[23] = target: Man(a1-2)Man(a1-6)[Man(a1-3)]Man(a1-6)[Man(a1-2)Man(a1-2)Man(a1-3)]Man
In short: as §1

[24] = target: Man(a1-2)Man(a1-6)[Man(a1-3)]Man(a1-6)[Man(a1-2)Man(a1-2)Man(a1-3)]Man(b1-4)GlcNAc(b1-4)GlcNAc
In short: as §1

Man(a1-3)[Man(a1-6)]Man = target: Man(a1-3)[Man(a1-6)]Man
In short: as §1

[25] = target: Man(a1-3)[Man(a1-6)]Man(a1-6)[Man(a1-2)Man(a1-3)]Man(b1-4)GlcNAc(b1-4)GlcNAc
In short: as §1

[26] = target: Man(a1-3)[Man(a1-6)]Man(a1-6)[Man(a1-3)]Man
In short: as §1

B1: RfpB (Mycobacterium tuberculosum), O05594 (protein)
chain: MAAGLVTASMSLSTAVAHAGPSPNWDAVAQCESGGNWAANTGNGKYGGLQFKPATWAAFGGVGNPAAASREQQIAVANRVLAEQGLDAWPTCGAASGLPIALWSKPAQGIKHAGPSPNWDAVAQCESGGNWAANTGNGKYGGLQFKPATWAAFGGVGNPAAASREQQIAVANRVLAEQGLDAWPTCGA
glycan array binding signal (z-score) (GalNAc(b1-4)GlcNAc): -0.573
glycan array binding signal (z-score) (Glc(a1-4)Glc): 0.29
glycan array binding signal (z-score) (Glc(a1-6)Glc(a1-6)Glc): -0.239
glycan array binding signal (z-score) (Glc(b1-4)Glc): -0.548
glycan array binding signal (z-score) (Glc(b1-6)Glc): -0.622
glycan array binding signal (z-score) (GlcA(b1-3)Gal): 0.097
glycan array binding signal (z-score) (GlcA(b1-3)GlcNAc): -0.002
glycan array binding signal (z-score) (GlcA(b1-6)Gal): -0.284
glycan array binding signal (z-score) [1]: -0.486
glycan array binding signal (z-score) [2]: -0.738
glycan array binding signal (z-score) [3]: -0.531
glycan array binding signal (z-score) [4]: -0.364
glycan array binding signal (z-score) (GlcNAc(b1-3)Gal): 0.174
glycan array binding signal (z-score) [5]: 0.104
glycan array binding signal (z-score) (GlcNAc(b1-3)Gal(b1-4)Glc): 0.399
glycan array binding signal (z-score) [6]: -0.176
glycan array binding signal (z-score) [7]: 0.047
glycan array binding signal (z-score) (GlcNAc(b1-3)GalNAc): -0.555
glycan array binding signal (z-score) (GlcNAc(b1-3)Man): -0.668
glycan array binding signal (z-score) [8]: -0.563
glycan array binding signal (z-score) [9]: -0.385
glycan array binding signal (z-score) [10]: -0.697
glycan array binding signal (z-score) [11]: -0.41
glycan array binding signal (z-score) (GlcNAc(b1-4)GlcNAc): -0.45
glycan array binding signal (z-score) [12]: -0.427
glycan array binding signal (z-score) [13]: -0.327
glycan array binding signal (z-score) [14]: -0.63
glycan array binding signal (z-score) [15]: -0.277
glycan array binding signal (z-score) [16]: 0.095
glycan array binding signal (z-score) (GlcNAc(b1-6)GalNAc): -0.125
glycan array binding signal (z-score) (GlcNAc3Prop(b1-4)GlcNAc): 0.587
glycan array binding signal (z-score) (Kdn(a2-3)Gal(b1-3)GlcNAc): -0.449
glycan array binding signal (z-score) (Kdn(a2-3)Gal(b1-4)GlcNAc): -0.23
glycan array binding signal (z-score) [17]: 0.811
glycan array binding signal (z-score) [18]: -0.264
glycan array binding signal (z-score) (Man(a1-2)Man(a1-3)Man): 0.119
glycan array binding signal (z-score) [19]: 0.412
glycan array binding signal (z-score) [20]: -0.097
glycan array binding signal (z-score) [21]: -0.555
glycan array binding signal (z-score) [22]: 0.343
glycan array binding signal (z-score) [23]: 0.333
glycan array binding signal (z-score) [24]: -0.426
glycan array binding signal (z-score) (Man(a1-3)[Man(a1-6)]Man): 9.95
glycan array binding signal (z-score) [25]: -0.606
glycan array binding signal (z-score) [26]: 0.294
